Marks after values point to notes of the source that are not given here.
How the values were obtained:
human brain activity = settings: human volunteers; cited from earlier work
[1] = pH-stability of SPL026 (DMT fumarate) 2.5 mg/mL in 40 mM Britton-Robinson buffer (pH, HPLC assay, related substances)
[2] = Solubility of 20 mg/mL DMT fumarate in Britton-Robinson buffer at varied pH
[3] = In vivo pharmacokinetic profile following intramuscular dosing in rats (plasma, LC-MS/MS); settings: rat; for Cmax compared with DMT (SPL026): IM dosing, p=0.005; for plasma levels at 30 mins compared with undeuterated DMT: […] (as fumarate) IM dose
[4] = nominal pH 4.0, Day 7: 7 days storage at 40° C.
[5] = nominal pH 4.0, Day 17: 10 days at 40° C. followed by 7 days at 50° C.
[6] = nominal pH 5.0, Day 7: 7 days storage at 40° C.
[7] = nominal pH 5.0, Day 17: 10 days at 40° C. followed by 7 days at 50° C.
[8] = nominal pH 6.0, Day 7: 7 days storage at 40° C.
[9] = nominal pH 6.0, Day 17: 10 days at 40° C. followed by 7 days at 50° C.
[10] = nominal pH 6.5, Day 7: 7 days storage at 40° C.
[11] = nominal pH 6.5, Day 17: 10 days at 40° C. followed by 7 days at 50° C.
[12] = nominal pH 7.0, Day 7: 7 days storage at 40° C.
[13] = nominal pH 7, Day 17: 10 days storage at 40° C., 7 days storage at 50° C.
[14] = nominal pH 7.0 UV Light, Initial
[15] = nominal pH 7.0 UV Light, on completion of light stressing (200 watt hours UVA, 0.6 million luxhours)
[16] = nominal pH 7 UV light (200 watt hours UVA, 0.6 million luxhours)
[17] = nominal pH 7.0 sparged N2, Day 7: 7 days storage at 40° C.
[18] = nominal pH 7.0 sparged N2, Initial
[19] = nominal pH 7.5, Day 7: 7 days storage at 40° C.
[20] = nominal pH 7.5, Day 17: 10 days at 40° C. followed by 7 days at 50° C.
[21] = nominal pH 7.5, Day 17: 10 days storage at 40° C., 7 days storage at 50° C.
[22] = nominal pH 8.0, Day 7: 7 days storage at 40° C.
[23] = nominal pH 8.0, Day 17: 10 days at 40° C. followed by 7 days at 50° C.
[24] = nominal pH 8, Day 17: 10 days storage at 40° C., 7 days storage at 50° C.
[25] = nominal pH 9.0, Day 7: 7 days storage at 40° C.

For `CN(C)CCc1c[nH]c2ccccc12.O=C(O)/C=C/C(=O)O` [SPL026, N,N-dimethyltryptamine (DMT) fumarate salt], the “alpha power (EEG) relative to placebo” value (human brain activity) is listed as “suppressed alpha power”, the “delta and theta power (EEG) relative to placebo” value (human brain activity) is listed as “normalized/increased delta and theta power” and the “concentration by HPLC, change on stability” value ([1]; Day 7 or Day 17, pH 4 to 9 nominal) is listed as “no significant concentration changes”. The “Concentration (assay)” value [1, 4] was 2.57 mg/mL, the Total related substances [1, 4] was “ND (ND—<0.02 area of total peak area)” and the pH [1, 4] was 3.84. For the same molecule, the “Concentration (assay)” value [1, 5] was 2.52 mg/mL, the Total related substances [1, 5] was “ND (ND—<0.02 area of total peak area)” and the pH [1, 5] was 3.84. The “Concentration (assay)” value ([1]; nominal pH 4.0, Initial) was 2.47 mg/mL, the Total related substances ([1]; nominal pH 4.0, Initial) was “ND (ND—<0.02 area of total peak area)” and the pH ([1]; nominal pH 4.0, Initial) was 3.86. For the same molecule, the “Concentration (assay)” value [1, 6] was 2.48 mg/mL, the Total related substances [1, 6] was “ND (ND—<0.02 area of total peak area)” and the pH [1, 6] was 4.55. The “Concentration (assay)” value [1, 7] was 2.52 mg/mL, the pH [1, 7] was 4.52 and the “individual related substance, percentage area of total peak area, relative retention time 1.56” value ([1]; nominal pH 5, Day 17: 10 days storage at 40° C., 7 days storage at 50° C.) was 0.07%. For the same molecule, the “Concentration (assay)” value ([1]; nominal pH 5.0, Initial) was 2.50 mg/mL, the Total related substances ([1]; nominal pH 5.0, Initial) was “ND (ND—<0.02 area of total peak area)” and the pH ([1]; nominal pH 5.0, Initial) was 4.57. The “Concentration (assay)” value [1, 8] was 2.56 mg/mL, the Total related substances [1, 8] was “ND (ND—<0.02 area of total peak area)” and the pH [1, 8] was 5.07. For the same molecule, the “Concentration (assay)” value [1, 9] was 2.48 mg/mL, the pH [1, 9] was 5.06 and the “individual related substance, percentage area of total peak area, relative retention time 1.56” value ([1]; nominal pH 6, Day 17: 10 days storage at 40° C., 7 days storage at 50° C.) was 0.09%. The “Concentration (assay)” value ([1]; nominal pH 6.0, Initial) was 2.51 mg/mL, the Total related substances ([1]; nominal pH 6.0, Initial) was “ND (ND—<0.02 area of total peak area)” and the pH ([1]; nominal pH 6.0, Initial) was 5.08. The “Concentration (assay)” value [1, 10] was 2.59 mg/mL, the Total related substances [1, 10] was “ND (ND—<0.02 area of total peak area)” and the pH [1, 10] was 5.33. For the same molecule, the “Concentration (assay)” value [1, 11] was 2.51 mg/mL, the pH [1, 11] was 5.31 and the “individual related substance, percentage area of total peak area, relative retention time 1.56” value ([1]; nominal pH 6.5, Day 17: 10 days storage at 40° C., 7 days storage at 50° C.) was 0.10%. For the same molecule, the “Concentration (assay)” value ([1]; nominal pH 6.5, Initial) was 2.49 mg/mL, the Total related substances ([1]; nominal pH 6.5, Initial) was “ND (ND—<0.02 area of total peak area)” and the pH ([1]; nominal pH 6.5, Initial) was 5.33. The pH ([1]; nominal pH 6.5 sparged N2, Day 7: 7 days storage at 40° C.) was 6.18, the pH ([1]; nominal pH 6.5 sparged N2, Day 17: 10 days at 40° C. followed by 7 days at 50° C.) was 6.09 and the pH ([1]; nominal pH 6.5 sparged N2, Initial) was 6.12. For the same molecule, the “individual related substance, percentage area of total peak area, relative retention time 1.56” value ([1]; nominal pH 6.5 with N2 (sparged with nitrogen), Day 17: 10 days storage at 40° C., 7 days storage at 50° C.) was 0.05%, the “Concentration (assay)” value [1, 12] was 2.54 mg/mL and the Total related substances [1, 12] was “ND (ND—<0.02 area of total peak area)”. For the same molecule, the “Concentration (assay)” value ([1]; nominal pH 7.0, Day 17: 10 days at 40° C. followed by 7 days at 50° C.) was 2.45 mg/mL, the “individual related substance, percentage area of total peak area, relative retention time 0.73” value [1, 13] was 0.09% and the “individual related substance, percentage area of total peak area, relative retention time 0.91” value [1, 13] was 0.05%. The “Concentration (assay)” value ([1]; nominal pH 7.0, Initial) was 2.54 mg/mL, the Total related substances ([1]; nominal pH 7.0, Initial) was “ND (ND—<0.02 area of total peak area)” and the pH ([1]; nominal pH 7.0, Initial) was 6.12. The “Concentration (assay)” value [1, 14] was 2.54 mg/mL, the Total related substances [1, 14] was “ND (ND—<0.02 area of total peak area)” and the “Concentration (assay)” value [1, 15] was 2.26^a mg · mL^−1. For the same molecule, the Total related substances [1, 15] was 1.68^a %, the pH ([1]; nominal pH 7.0 UV Light, pH on completion of testing) was 6.07^a and the “individual related substance, percentage area of total peak area, relative retention time 0.54” value [1, 16] was 0.05%. For the same molecule, the “individual related substance, percentage area of total peak area, relative retention time 0.77” value [1, 16] was 0.06%, the “individual related substance, percentage area of total peak area, relative retention time 0.80” value [1, 16] was 0.07% and the “individual related substance, percentage area of total peak area, relative retention time 1.56” value [1, 16] was 0.10%. The “Concentration (assay)” value [1, 17] was 2.54 mg/mL, the Total related substances [1, 17] was “ND (ND—<0.02 area of total peak area)” and the “Concentration (assay)” value ([1]; nominal pH 7.0 sparged N2, Day 17: 10 days at 40° C. followed by 7 days at 50° C.) was 2.51 mg/mL. The “Concentration (assay)” value [1, 18] was 2.54 mg/mL, the Total related substances [1, 18] was “ND (ND—<0.02 area of total peak area)” and the “Concentration (assay)” value [1, 19] was 2.55 mg/mL. For the same molecule, the Total related substances [1, 19] was “ND (ND—<0.02 area of total peak area)”, the pH [1, 19] was 6.58 and the “Concentration (assay)” value [1, 20] was 2.46 mg/mL. The pH [1, 20] was 6.59, the “individual related substance, percentage area of total peak area, relative retention time 0.91” value [1, 21] was 0.07% and the “individual related substance, percentage area of total peak area, relative retention time 1.56” value [1, 21] was 0.09%. For the same molecule, the “Concentration (assay)” value ([1]; nominal pH 7.5, Initial) was 2.50 mg/mL, the Total related substances ([1]; nominal pH 7.5, Initial) was “ND (ND—<0.02 area of total peak area)” and the pH ([1]; nominal pH 7.5, Initial) was 6.60. For the same molecule, the “Concentration (assay)” value [1, 22] was 2.49 mg/mL, the Total related substances [1, 22] was “ND (ND—<0.02 area of total peak area)” and the pH [1, 22] was 6.86. For the same molecule, the “Concentration (assay)” value [1, 23] was 2.42 mg/mL, the pH [1, 23] was 6.84 and the “individual related substance, percentage area of total peak area, relative retention time 0.91” value [1, 24] was 0.09%. For the same molecule, the “individual related substance, percentage area of total peak area, relative retention time 0.95” value [1, 24] was 0.05%, the “individual related substance, percentage area of total peak area, relative retention time 1.56” value [1, 24] was 0.07% and the “Concentration (assay)” value ([1]; nominal pH 8.0, Initial) was 2.49 mg/mL. The Total related substances ([1]; nominal pH 8.0, Initial) was “ND (ND—<0.02 area of total peak area)”, the pH ([1]; nominal pH 8.0, Initial) was 6.87 and the “Concentration (assay)” value [1, 25] was 2.41 mg/mL. For the same molecule, the pH [1, 25] was 7.72, the “Concentration (assay)” value ([1]; nominal pH 9.0, Day 17: 10 days at 40° C. followed by 7 days at 50° C.) was 2.46 mg/mL and the “Concentration (assay)” value ([1]; nominal pH 9.0, Initial) was 2.47 mg/mL. The Total related substances ([1]; nominal pH 9.0, Initial) was “ND (ND—<0.02 area of total peak area)”, the pH ([1]; nominal pH 9.0, Initial) was 7.71 and the “concentration over 17 days” value ([1]; solutions having a nominal pH≥7) was “decreased”. The “dissolution in each test formulation” value ([2]; 20 mg/mL nominal, Britton-Robinson buffer, only swirling and shaking needed) was “very soluble”, the “pH of each solution following overnight storage” value ([2]; 20 mg/mL, ambient conditions) was “no changes from the initial pH values” and the “content after filtration, across pH solutions” value ([2]; 20 mg/mL, each solution incl. high pH with precipitate) was “approximately the same content”. The “solubility / appearance of solution” value ([2]; 20 mg/mL, pH 4, 5, 6 and 7) was “clear and colourless”, the “solubility / appearance of solution” value ([2]; 20 mg/mL, pH 8) was “hazy” and the “solubility / appearance of solution” value ([2]; 20 mg/mL, pH 9 and pH 10) was “contained a precipitate”.
With `O=C(O)/C=C/C(=O)O.[2H]C([2H])(Cc1c[nH]c2ccccc12)N(C)C` [SPL028i, α,α,-bis-deuterium-N,N-dimethyltryptamine fumarate salt] the “Cmax compared with DMT (SPL026)” value [3] was “significantly higher”, the “increase in Cmax at 10 mg/kg dose compared to […] dose level” value ([3]; IM, p<0.05) was 144% and the “plasma levels at 30 mins compared with undeuterated DMT” value [3] was “significantly higher”.
For `O=C(O)/C=C/C(=O)O.[2H]C([2H])([2H])N(C([2H])([2H])[2H])C([2H])([2H])Cc1c[nH]c2ccccc12` [SPL028viii, α,α,bis-deuterio-N,N-hexadeuterio-dimethyltryptamine fumarate salt], the “Cmax compared with DMT (SPL026)” value [3] was “significantly higher” and the “plasma levels at 30 mins compared with undeuterated DMT” value [3] was “significantly higher”.
